In patent publication US20060252056A1, “Markers for responsiveness to an erbB receptor tyrosine kinase inhibitor” (AstraZeneca UK Limited, priority 2003, published 2006):

Key:
PC-9 cells [1] = tested on: PC-9 cells
lung cancer = settings: cited from earlier work
advanced NSCLC [2] = settings: cited from earlier work
[3] = Plasma gefitinib concentration in patients of the phase II study; settings: patients with best overall response PD (LC16-LC28)
Description: Patients whose locally advanced (stage IIIB) or metastasized (stage IV) NSCLCs were resistant to one or more regimens of conventional chemotherapy were enrolled in this trial. Inclusion criteria were (1) age greater than 20 years, (2) Performance Status (PS) 0-2, (3) adequate liver and kidney function tests. […] The treatment was continued until the patient was dropped from the study due to (1) progression of disease, (2) intolerable toxicity, or (3) withdrawal of consent.

PC-9 cells [4] = settings: reported previously by the supplier; cited from earlier work
PC-9 cells [5] = test: Flow cytometry (propidium iodide) of gefitinib-treated lung adenocarcinoma cells, sub-G1 population; type: cell-based, human; settings: 1·0 μM gefitinib, 72 hours, serum-free medium, no treatment 6%
Method: The cells were trypsinized 72 hours after the treatment, collected in PBS, and fixed in 70% cold ethanol for 30 min. After treatment with 100 μg/ml RNase (Sigma-Aldrich Co., St. Louis, Mo., USA), the cells were stained with 50 μg/ml propidium iodide (Sigma-Aldrich Co.) in PBS. Flow cytometry was performed on a Becton Dickinson FACScan and analyzed by ModFit software (Verity Software House, Inc., Topsham, Me., USA). The percentages of nuclei in G0/G1, S, and G2/M phases of the cell cycle and sub-G1 population were determined from at least 20,000 ungated cells.

advanced NSCLC [6] = settings: cited from earlier work; remark: listed apart in the source
PC-9 cells [7] = test: MTT viability of PC-9 cells with recombinant AREG protein with or without gefitinib; type: cell-based, human; settings: recombinant AREG 1-100 ng/ml, 72 hours
Method: Cell viability was evaluated by MTT assays. A possible effect of AREG itself on the viability of NSCLC cells was evaluated also, by culturing the PC-9 cells in serum- and gefitinib-free medium containing only recombinant AREG protein. MTT assays were performed as above.

Molecule | viability of PC-9 cells in serum-free conditioned medium (NCI-H358 or -H522) containing gefitinib vs serum-free medium with the same gefitinib concentrations (PC-9 cells [1]; 0·5 or 1·0 μM gefitinib, 72 hours, MTT) | anti-tumor activity of gefitinib on PC-9 cells under autocrine secretion of AREG (PC-9 cells [1]; PC-9 cells, gefitinib-sensitive, AREG-non-expressing) | response rate (lung cancer; patients with lung cancer, earlier studies) | tumor-response rates (lung cancer; phase II trials IDEAL 1 and IDEAL 2, 2nd-, 3rd-, or 4th-line monotherapy for advanced NSCLC) | tumour response rate (advanced NSCLC [2]; IDEAL 1, 2nd or 3rd line of chemotherapy, advanced NSCLC) | disease control rate (advanced NSCLC [2]; IDEAL 1) | overall symptom improvement rate (advanced NSCLC [2]; IDEAL 1) | Plasma Gefitinib Concentration, mean [3] | Plasma Gefitinib Concentration, range [3] | anti-tumor effect of gefitinib in the presence of 10% FCS (PC-9 cells [4]) | percentages of nuclei in sub-G1 (PC-9 cells [5]) | tumour response rate (advanced NSCLC [6]; IDEAL 2, 3rd or 4th line of chemotherapy, advanced NSCLC) | disease control rate (advanced NSCLC [6]; IDEAL 2) | overall symptom improvement rate (advanced NSCLC [6]; IDEAL 2) | viability of PC-9 cells incubated with AREG and 1·0 μM gefitinib vs 1·0 μM gefitinib only (PC-9 cells [7]; AREG-dose-dependent) | effect on the viability of PC-9 cells, AREG alone (PC-9 cells [7]; no gefitinib)
COc1cc2ncnc(Nc3ccc(F)c(Cl)c3)c2cc1OCCCN1CCOCC1 [gefitinib, N-(3-chloro-4-fluorophenyl)-7-methoxy-6-(3-morpholinopropoxy)quinazolin-4-amine] | greater | dramatically decreased | less than 20% | ~20% | 18.4% | 54.4% | 40.3% | 263.2 ng/mL | (150.7-405.6) ng/ml | decreases | 24% | 11.8% | 42.2% | 43.1% | – | –
recombinant AREG: recombinant AREG protein (Genzyme-Techne), a ligand for EGFR and other ERBB members (protein, UniProt P15514 101-187, looked up) Amphiregulin: SVRVEQVVKPPQNKTESENTSDKPKRKKKGGKNGKNRRNRKKKNPCNAEFQNFCIHGECKYIEHLEAVTCKCQQEYFGERCGEKSMK | – | – | – | – | – | – | – | – | – | – | – | – | – | – | increased | no effect

Read-outs that look alike come from different tables or passages of the source.
